Structures are written as SMILES. About 450 (0.94%) of roughly 48,000 compounds were called active. Another 19% or so got no clear call; they are omitted. The call rests on the fitted dose curve; in most records, active means well fitted inhibition curve with a large enough effect; inconclusive means small, poorly fitted or top-dose-only effect; inactive means no such curve, though single readings can be large or run the other way. This is one part of the list.

A short description of the test: Primary qHTS for Identification of Small Molecule Inhibitors of Huntingtin Promoter Activity. Further: nearly all actives have a fitted effect of over 50% in size. To be noted: HEK293 HTT promoter firefly luciferase reporter (activity 0% = vehicle and -100% = no light), 24 h; series mostly up to 57.5 µM; activity change, negative = inhibition: at the top concentration. Put shortly: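 HEK293 luciferase promoter-reporter cells (2,500/well) plated 24 h, then compounds added at up to 57.5 uM final for 24 h at 37 °C. Firefly luminescence by Dual-Glo, normalized to vehicle (0%) and zero RLU (-100%).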
On the technique in general: qHTS replaces the single test concentration by a dilution series.
For the molecule `Cc1cccc(C)c1NC(=O)Cn1c(=O)n(CCC(=O)NCc2ccccc2Cl)c(=O)c2sccc21`, the “activity change, negative = inhibition” value was inactive: -13.1%.
Turning to `COc1ccc(OC)c(CCNC(=O)c2c(C)oc3ncn(C)c(=O)c23)c1`, the “activity change, negative = inhibition” value was inactive: 6.95%.
As to `O=C(Cn1c(SCC(=O)Nc2ccc(F)cc2)nc2ccccc21)NCc1ccc(F)cc1`, the “activity change, negative = inhibition” value is inactive: -30.3%.
For `N#Cc1ccc(C(=O)Nc2cc3nn(-c4ccccc4)nc3cc2Cl)c(F)c1` the value was inactive: 8.3%.
For `CCCC(=O)NCC1(N(C)C)CCCCC1` the value was inactive: -14.2%; for `CCOC(=O)C1CCN(S(=O)(=O)c2cc(Br)cc3c2N(C(=O)CC)CC3)CC1`, inactive: -1.44%.
With `COc1ccc(NC(=O)C(=O)NCCc2csc(-c3ccc(Cl)cc3)n2)cc1OC` the figure was inactive: -30%; with `CCOc1cc2sc(N3CCC(C(=O)Nc4ccc(C)cc4C)CC3)nc2cc1Br`, inactive: 77.7%; with `CCN1CCN(c2ncc3c(n2)CCN(Cc2cc(F)cc(F)c2)C3)CC1`, inactive: -23.8%.
For the molecule `COc1ccccc1NC(=O)C(=O)NCC(c1ccc2c(c1)OCO2)N1CCN(C)CC1` (stereo unspecified), the “activity change, negative = inhibition” value is inactive: -8.11%.
For `Cn1c(=NC(=O)c2ccc(S(=O)(=O)N3CCCc4ccccc43)cc2)sc2cc(F)ccc21` the value was inactive: -22.2%; for `CC(C)OCCCn1c(=O)c2ccccc2n2c(-c3ccc(F)cc3)nnc12`, inactive: 2.84%; for `Cc1cccc(C(=O)Nc2c(-c3ccccc3)nc3cc(C)ccn23)c1`, inactive: 13.6%.
For `Cc1ccc(S(=O)(=O)NC(=O)NC2CCCC2)cc1` the value was inactive: 7.68%.
With `COC(=O)c1ccc(NC(=O)CSc2nc(=O)[nH]c3c2CCCC3)cc1`, the “activity change, negative = inhibition” value is inactive: -8.81%.
On to `CCOC(=O)COc1ccc([N+](=O)[O-])cc1-c1ccnc2cc(-c3ccc(Cl)cc3)nn12`, for which the “activity change, negative = inhibition” value is inactive: -4.76%.
For `CN(C)c1ccc(C(CNC(=O)c2ccccc2)N2CCc3ccccc32)cc1` (stereo unspecified) the value was inactive: 22.9%.
For the molecule `CC(C)CC(=O)Nc1cccc(-c2nc3ccccc3[nH]2)c1`, the “activity change, negative = inhibition” value was inactive: 44.2%.
With `Cc1cccc(-c2noc(-c3ccccc3OCC(=O)Nc3ccc([N+](=O)[O-])cc3)n2)c1` the figure was inactive: -0.142%; with `COc1ccccc1CNc1nc(-c2ccco2)nn1S(=O)(=O)c1ccc2ccccc2c1`, inactive: -6.48%.
For `Cc1ccccc1C(=O)Nc1sc2c(c1C(=O)NCc1ccco1)CCC(C(C)(C)C)C2` (stereo unspecified) the value was inactive: -11.1%.
Regarding `Cc1ccc(SCCNC(=O)CN(c2ccccc2)S(=O)(=O)N(C)C)cc1`, the “activity change, negative = inhibition” value was inactive: -21.2%.
For `CCOc1cc(C(=O)OCc2cc(=O)n3nc(CC)sc3n2)cc(OCC)c1OCC`, the “activity change, negative = inhibition” value was inactive: -1.06%.
With `CCC(=O)N1CCc2cc(Br)cc(S(=O)(=O)N3CCCC(C(=O)Nc4ccc(C(C)C)cc4)C3)c21` (stereo unspecified) the figure was inactive: -6.47%; with `CCc1cnc2c(c1SCC(=O)c1ccccc1)c(=O)n(C)c(=O)n2C`, inactive: -13.8%.
`CCOc1sc2nc(C)n(CC(=O)Nc3cccc(C)c3)c(=O)c2c1C`: the “activity change, negative = inhibition” value was inactive: 0.0317%.
With `Cc1scc2c1N(C(=O)CN1CCN(C)CC1)c1ccccc1NC2=O` the figure was inactive: 24.5%; with `COC(=O)c1ccccc1NC(=O)c1c(C)oc2ncn(C)c(=O)c12`, inactive: -4.93%.
For `COc1ccc(OCc2nc3ccccc3n2Cc2ccccc2Cl)cc1` the value was inactive: -17.7%; for `Cc1ccc(CNS(=O)(=O)c2cc3[nH]c(=O)c(=O)[nH]c3cc2C)cc1`, inactive: -1.41%; for `Cc1cn2c(=O)cc(COc3ccccc3NC(=O)c3ccco3)nc2s1`, inactive: -2.29%.
Consider `Cc1c(C(=O)NCc2cccc(Cl)c2)sc2nc3n(c(=O)c12)CCC3`, for which the “activity change, negative = inhibition” value is inactive: 6.35%.
With `Cc1ccc(S(=O)(=O)NC2(C(F)(F)F)C(=O)Nc3c2c(=O)[nH]c(=O)n3-c2ccccc2)cc1` (stereo unspecified) the figure was inactive: -3.56%.
Turning to `CCN1CCN(CCCNC(=O)c2cnn(-c3ccc(C)cc3C)c2C2CCN(C(=O)OC(C)(C)C)CC2)CC1`, the “activity change, negative = inhibition” value is inactive: -19.2%.
With `NC(=O)c1nc(-c2ccc(F)c(F)c2)nc2c1[nH]c(=O)n2-c1cccc(Cl)c1` the figure was inactive: -11%; with `Cc1ccc(C(=O)Nc2ccc3nc(SCC(=O)N4CCCc5ccccc54)sc3c2)cc1`, inactive: -25.9%.
With `O=C(COC(=O)c1cc(-c2ccccc2)nc2ccccc12)c1ccc(Br)cc1`, the “activity change, negative = inhibition” value is inactive: -2.01%.
With `Cc1ccc(CNC(=O)Cc2ccc(NC(=O)N3CCSc4ncccc43)cc2)cc1` the figure was inactive: -24.4%; with `CC(C)(C)NC(=O)N1CCC(C(=O)O)CC1`, inactive: -8.98%.
For `CCCNC(=O)c1ccc(Cn2c(=O)c3cccn3c3cccnc32)cc1` the value was inactive: -10.9%; for `CCc1ccccc1NC(=O)c1ccc2c(c1)nnn2C1CCCC1`, inactive: -9.68%.
As for `CCOc1ccccc1NC(=O)CN1C(=O)COc2ccc(S(=O)(=O)NC3CCCC3)cc21`, the “activity change, negative = inhibition” value was inactive: -21.5%.
With `COCCCNC(=O)CCCn1c(=O)c2cccn2c2ccccc21` the figure was inactive: 18.1%; with `COc1ccccc1CNC(=O)CCC1N=C2c3ccccc3N=C(SCc3ccc(Cl)cc3)N2C1=O` (stereo unspecified), inactive: -24.9%.
With `Cc1ccc(N2CCN(S(=O)(=O)c3ccc(Cl)c4ccccc34)CC2)c(C)c1` the figure was inactive: 2.59%.
On to `O=C(Nc1cccc(C(F)(F)F)c1)c1cccc(C(=O)Nc2cccc(C(F)(F)F)c2)c1`, for which the “activity change, negative = inhibition” value is inactive: -24.3%.
As for `CCOC(=O)c1c(C)c(-c2ccccc2)n(CC(=O)Nc2cc(C)cc(C)c2)c1C`, the “activity change, negative = inhibition” value is inactive: -13.1%.
As for `O=C(CSc1nnc(-c2cccc(F)c2)c(-c2cccc(F)c2)n1)NC1CCCCC1`, the “activity change, negative = inhibition” value was inactive: -26.7%.
Regarding `O=C(Cn1ncc2c(=O)oc3ccccc3c21)N1CCN(c2ccc(Cl)cc2)CC1`, the “activity change, negative = inhibition” value is inactive: 6.08%.
For `COc1ccc(-n2nc3c(N4CCC(C(=O)NCCc5ccccc5)CC4)nnc(C)c3c2C)cc1` the value was inactive: -26.9%.
Regarding `COc1cccc(CSc2nc(-c3ccccc3F)nc3c2Cc2c(CO)cnc(C)c2O3)c1`, the “activity change, negative = inhibition” value was inactive: -15.1%.
With `COc1ccc2cc(CNc3ccc(C)cc3)c(=O)n(CC(=O)Nc3cccc(Cl)c3C)c2c1` the figure was inactive: -28.8%; with `COc1cc(Cl)c(C)cc1NC(=O)c1cnn(-c2ccc(F)cc2F)c1C1CCN(C(=O)OC(C)(C)C)CC1`, inactive: -21.8%.
For `CCOC(=O)c1c(NC(=O)COc2ccccc2Br)sc2c1CCCCC2` the value was inactive: -9.15%; for `CC(C)(C)c1ccc(C(=O)N(Cc2ccc(F)cc2)Cc2ccco2)cc1`, inactive: -25.5%.
For `Cc1ccc(-c2nnc(Nc3ccccc3)c3ccccc23)cc1S(=O)(=O)N1CCN(C)CC1` the value was inactive: 1.98% [at 11.5 µM]; for `COc1ccc(-c2nc(CSc3nnc(C)n4c3cc3oc(C)cc34)c(C)o2)cc1OC`, inactive: 1.94%; for `CCn1cc2nc(SCc3ccc(F)cc3)n(CCc3ccccc3)c(=O)c2n1`, inactive: -31.4%.
With `Cc1ccc(CNC(=O)CCc2cn(Cc3ccc(C)cc3)c3ccccc23)cc1`, the “activity change, negative = inhibition” value is inactive: -16.5%.
With `CCOc1ccc(-c2cc3nc(C4CCN(C(=O)OC(C)(C)C)CC4)c(C(=O)Nc4c(C)cccc4C)cn3n2)cc1` the figure was inactive: -30.7%; with `Cc1cc(C)c(Cn2c(=O)n(CCCCC(=O)NCc3ccccc3Cl)c(=O)c3ccccc32)c(C)c1`, inactive: -1.56%.
For `CCOC(=O)c1c(C)sc(-c2c(-c3cccc(Cl)c3)[nH]c3c2c(=O)n(C)c(=O)n3C)c1O` the value was inactive: 20.7%; for `COc1ccc(NC(=O)C2=C(C)Nc3ncnn3C2c2ccc[nH]2)cc1` (stereo unspecified), inactive: -16.2%.
For `Cc1c(C(=O)N(C)C)sc2c1c(=O)n(-c1ccc(F)cc1)c(=O)n2Cc1ccccc1C#N`, the “activity change, negative = inhibition” value was inactive: 9.29%.
In the case of `CCc1ccccc1N(C)S(=O)(=O)c1ccc2c(c1)C(C)(C)C(=O)N2C`, the “activity change, negative = inhibition” value is inactive: -28.7%.
For `CC(=O)Nc1ccc(NC(=O)C2CCN(c3cnccn3)CC2)cc1`, the “activity change, negative = inhibition” value is inactive: -3.61%.
For the molecule `Fc1ccc2c(c1)-c1c(cnc3cc(-c4ccc(Cl)cc4)nn13)CO2`, the “activity change, negative = inhibition” value is inactive: 5.94%.
For `CC(=O)N1CCc2cc(CNC(=O)Nc3ccc(Br)c(C)c3)ccc21` the value was inactive: -9.08%; for `COc1cccc(NC(=O)c2csnn2)c1`, inactive: 28.8%.
With `C=Cc1ccc(Cn2ccn(-c3ccc(F)c(F)c3)c(=O)c2=O)cc1` the figure was inactive: -10.2%; with `COc1ccc(CN(CCN(C)C)c2ccccn2)cc1`, inactive: 9.42%; with `CCOc1ccc(CCNC(=O)c2c(C)oc3ncn(CC(C)C)c(=O)c23)cc1OCC`, inactive: 5.53%.
As for `CC(=O)N1CCc2c(sc3c2c(=O)n(-c2ccccc2)c(=O)n3CC(=O)Nc2cc(C)cc(C)c2)C1`, the “activity change, negative = inhibition” value was inactive: -2.13%.
With `CC(COc1ccccc1)N(CCCl)Cc1ccccc1` (stereo unspecified) the entry was “inactive”.
With `CCCCCc1ccc(-c2ccc(Br)cc2)nc1` the figure was inactive: 76.5%; with `Cc1ccc(-n2nc(C(=O)N3CCN(c4ccccc4F)CC3)c(=O)n(C)c2=O)cc1`, inactive: -14%; with `O=C(NCc1ccccc1F)C(=O)NCC(c1ccc2c(c1)OCO2)N1CCOCC1` (stereo unspecified), inactive: -17.5%.
`CCc1ccc(NC(=O)CSc2nc(C)c(C(=O)Nc3ccccc3)c(-c3ccc(OC)c(OC)c3)c2C#N)cc1`: the “activity change, negative = inhibition” value was inactive: -17.3%.
With `Cc1cc(Br)ccc1NC(=O)CSc1c2c(nc3ccccc13)CCC2` the figure was inactive: -27.4%.
For `CC(C)(C)C(=O)CSc1nc2ccsc2c(=O)n1Cc1ccccc1Cl` the value was inactive: -27.3%; for `CSc1ccc(CCNC(=O)c2cc(C)nc3c2c(C)nn3-c2cccc(F)c2)cc1`, inactive: -7.35%.
For `COc1ccc(NC(=O)c2cc3cc(C)ccc3[nH]2)cc1`, the “activity change, negative = inhibition” value was inactive: 20.1%.
For `COc1ccccc1N1CCN(c2ccc(=O)n(CC(=O)NCc3ccc(F)cc3)n2)CC1` the value was inactive: -1.34%.
For `COc1cccc(CSc2nc3n(n2)C(c2ccc(C(=O)O)cc2)C(C(=O)Nc2ccccc2)=C(C)N3)c1` (stereo unspecified), the “activity change, negative = inhibition” value is inactive: 12.9%.
With `O=C(OCc1cc(=O)n2nc(-c3cccs3)sc2n1)c1ccccc1Cl` the figure was inactive: 8.8%.
Regarding `CCOc1ccccc1NC(=O)CSc1nc2c(oc3ccccc32)c(=O)n1-c1ccc(F)cc1`, the “activity change, negative = inhibition” value was inactive: -20.5%.
With `CSc1ccccc1-c1nnc(NC(=O)c2ccc3c(c2)OCCO3)o1` the figure was inactive: 11.1%.
Take `Cc1c(C(=O)N2CCCCCC2)c(S(=O)(=O)NCc2ccccc2)c(C)n1C`: the “activity change, negative = inhibition” value was inactive: 1.68%.
With `O=C(Nc1ccc(F)c(Cl)c1)Nc1c[nH]c(=O)[nH]c1=O` the figure was inactive: 10.3%.
For `O=C(CSc1nc(=O)n(CCN2CCOCC2)c2c1CCC2)Nc1ccc(Cl)c(Cl)c1` the value was inactive: -33.5%; for `CC(=O)Nc1ccccc1-c1nc2ccccc2n(CC(=O)Nc2cccc(C)c2C)c1=O`, inactive: -2.23%.
As for `Cc1ccc2nc(SCc3nc(-c4ccc(Cl)cc4)no3)[nH]c2c1`, the “activity change, negative = inhibition” value is inactive: -15.6%.
For `Cc1cc2c(cc1S(=O)(=O)Nc1cccc(Cl)c1C)n(C)c(=O)c(=O)n2C` the value was inactive: -13.4%; for `CCOC(=O)c1cc(-c2ccccc2)n(CCC(=O)Nc2ccccc2CC)c1C`, inactive: -4.9%; for `COc1ccc(C2CC(=O)N(Cc3ccc(C)cc3)c3c2c(C)nn3-c2nc(C)cc(C)n2)c(OC)c1` (stereo unspecified), inactive: -4.28%.
With `CCCCC12CN3CC(C)(CN(C1)C3c1c[nH]c3ccccc13)C2=O` (stereo unspecified) the figure was inactive: -16.1%.

The record behind these values is PubChem BioAssay AID1508623 (National Center for Advancing Translational Sciences (NCATS), 2021).
